The whole screen tested about 150,000 compounds, of which about 540 (0.36%) showed an effect of 50% or more. This is one part of the list.

The test system of this assay is Plasmodium falciparum. In words: Primary screen in NF54 nanoGlo assay, in single point, at 2uM, 72h; a lower Z score goes with more inhibition. Type of assay: functional, Erythrocyte. To be noted: timepoint 72 hour.
In the case of `O=C(Cc1nnc(-c2ccncc2)o1)NCc1ccccc1`, the “% Inhibition” value amounted to 2% and the Z score is given as -0.25.
The matching figures for `Cn1ccnc1[C@H]1CCN(c2nccn(C)c2=O)C1`: -12% and 1.63.
As to `COc1ccc(-c2ccc(=O)n(-c3c(C)noc3C)n2)cc1S(=O)(=O)N1CCCCC1`, the “% Inhibition” value is 2% and the Z score is on record as -0.2.
As for `Cc1nc(N2CC[C@H](S(N)(=O)=O)C2)nc(C)c1CC(C)C`, the “% Inhibition” value is reported as -8% and the Z score is reported as 0.71.
For `Cc1nn(C)cc1S(=O)(=O)N1CCC2(CCC(=O)N(C(C)C)C2)CC1`, in that order: -3% and 0.57.
For `COc1cc(C)c(CN2CCC(CCC(=O)O)CC2)c(C)n1`, in that order: -2% and 0.24.
The matching figures for `O=C(Cn1cncn1)N1CC[C@H](Oc2ccccn2)C1`: -11% and 2.04.
For `Cc1cnc(NC(=O)[C@H]2CCc3cnn(C)c3C2)c(Br)c1`, the “% Inhibition” value is listed as -7% and the Z score was 0.86.
For `CCN1CCN(c2c(CN(C(=O)c3ccc(Cl)cc3Cl)C(C)C)c(C)nn2-c2ccccc2)CC1`, in that order: -10% and 0.85.
For `Cc1cc(CN(C)c2ccnc3cc(Br)cnc23)no1`, in that order: 12% and -0.99.
The matching figures for `CCC(O)CNC(CC)c1c(C)nn(C)c1C` (stereo not drawn): -2% and 0.18.
In the case of `O=C(COc1ccc(Cl)cc1)N1CC[C@H](Oc2ccc3ccccc3n2)C1`, the “% Inhibition” value is on record as -18% and the Z score was 3.35.
For `Cc1c(Cl)cccc1OCC(=O)N(CCC(=O)O)CC(C)C`, in that order: -2% and 0.23.
For the compound `Nc1cc(-c2cc(O)cc(CC[C@H]3CCCCN3)c2)ccn1`, the “% Inhibition” value turned out to be 9% and the Z score is listed as -1.53.
For `CC(C)c1nc(CN2CCN(c3ccccc3F)CC2)cc(=O)[nH]1`, in that order: -9% and 1.44.
The matching figures for `CNc1ncnc2cc(C(=O)NCc3ccn(C(C)C)n3)ccc12`: -9% and 1.83.
The matching figures for `CCO[C@@H](C)c1nc(CN(C)C(=O)c2n[nH]c3ccccc23)cs1`: -7% and 0.71.
In the case of `Cc1ccc(C(=O)N2CCC3(CC2)CN(C)CCCN3C)cc1F`, the “% Inhibition” value was -6% and the Z score is given as 1.16.
For `CC(C)c1nn(C)cc1C(=O)N1CC(CO)C1`, in that order: -7% and 1.2.
The matching figures for `Cc1ncsc1CN1CC(c2nc(CCN(C)C(=O)C3CCOCC3)no2)C1`: -6% and 0.76.
For `Cc1ncsc1CNc1ccc2nc(N(C)C)oc2c1`, in that order: 4% and -0.76.
In the case of `Cc1ccc(CNC(=O)[C@@]23CCCC[C@H]2N(C2CC2)S(=O)(=O)CC3)o1`, the “% Inhibition” value is given as -15% and the Z score was 1.71.
For `CCc1nsc(NCC(=O)N2CCCO2)n1`, in that order: -11% and 2.1.
Turning to `CC(C)(C)C(=O)N1CCc2ccc(OCc3ccc(C(=O)NCCN4CCCC4)o3)cc2[C@@H]1c1cccc(F)c1`, the “% Inhibition” value is -1% and the Z score was found to be 0.15.
With `CC(C)c1ncc(C(=O)OCCN2C(=O)CNC2=O)s1`, the “% Inhibition” value is listed as -5% and the Z score amounted to 0.84.
`COCCC[C@H]1CCCCN1C(=O)c1ccc2[nH]ccc2c1`: the “% Inhibition” value is -7% and the Z score is 1.38.
For `O=C(c1ccccn1)N1C[C@H]2CC[C@@H](C1)N(C(=O)c1ccc3cc[nH]c3c1)C2`, in that order: 6% and -0.62.
`Cc1nc(CC(C)C)oc1C(=O)N[C@H]1CCCc2sccc21`: the “% Inhibition” value is -9% and the Z score was determined as 1.22.
For `CN1CCN(CC(C)(C)NC(=O)N2CC[C@H]2c2ccc(F)cc2)CC1`, in that order: 7% and -1.22.
For `C[C@]1(c2ccccc2)CCC(=O)N(CCC(=O)O)C1`, in that order: -7% and 1.04.
For `O=C(Nc1nnc(-c2ccccc2)o1)c1ccc(Cl)cc1`, in that order: -16% and 1.65.
For `Cc1n[nH]c(C)c1Cc1nncn1-c1ccc(Cl)cc1`, the “% Inhibition” value is -4% and the Z score turned out to be 0.8.
Consider `CCCCc1nc(C)c(C(=O)NC(C)(C)C(=O)O)s1`, for which the “% Inhibition” value worked out at 8% and the Z score was -0.89.
Take `O=c1[nH]cnc2c1nc(N1CCCCC1)n2[C@@H]1O[C@H](CO)[C@@H](O)[C@H]1O`: the “% Inhibition” value is -5% and the Z score worked out at 0.63.
The matching figures for `CCCCn1ccc(=O)c2c(C(F)(F)F)nccc21`: -15% and 1.95.
The matching figures for `NC(=O)c1cc(OC2CCN(C(=O)c3coc(CC4CC4)n3)CC2)ccn1`: 2% and -0.4.
The matching figures for `O=C(CC1(CC(=O)N2CCC2)CCCCC1)N1CCC1`: -7% and 1.01.
Regarding `O=C(c1ccc2sccc2c1)N1CCC[C@H](O)C1`, the “% Inhibition” value was -16% and the Z score came to 1.66.
`Cc1[nH]ncc1CCCNc1ccc(C#N)cn1`: the “% Inhibition” value is given as -14% and the Z score worked out at 1.54.
For `FC(F)(F)[C@H](NCc1nc(C2CC2)no1)c1cccc2ccccc12`, in that order: 4% and -0.55.
For `CN(C)CCNC(=O)Cc1cccs1`, in that order: -20% and 2.69.
On to `O=C(CCC1CCN(Cc2cccnc2)CC1)N1CCc2ccccc2C1`, for which the “% Inhibition” value is on record as -11% and the Z score came out at 2.03.
The matching figures for `CC(=O)Nc1ccc(C(=O)N(Cc2ccccc2F)C2(C(=O)NCc3ccccc3)CCN(C(C)=O)CC2)cc1`: 7% and -0.99.
In the case of `C[C@H](NC(=O)c1nnc2n1CCCCC2)c1cccnc1`, the “% Inhibition” value is reported as -5% and the Z score was determined as 0.99.
As for `O=C(NCCN1CCN(c2nc(Cc3ccc(Cl)cc3)ns2)CC1)c1ccc(F)cc1`, the “% Inhibition” value is reported as -15% and the Z score came to 2.6.
`COc1cc(NC(=O)N(Cc2ccncc2)C2CC2)cc2cccnc12`: the “% Inhibition” value stood at 2% and the Z score is reported as -0.19.
The matching figures for `C[C@]1(F)CCCN(C(=O)Cc2ccco2)C1`: 5% and -0.54.
The matching figures for `CCCCn1c(N)c(N(CCOC)C(=O)c2cc(-c3ccc(OC)c(OC)c3)nc3ccccc23)c(=O)[nH]c1=O`: 5% and -0.55.
For `OC[C@H]1CCCN(CCNc2ccc3cc(Cl)ccc3n2)C1`, in that order: 12% and -1.36.
As for `CC(C)(CN1CCN(C2CC2)CC1)CN1C(=O)c2ccccc2C1=O`, the “% Inhibition” value turned out to be 5% and the Z score was -0.66.
For `CC1CC(c2cccc(F)c2)N(CCN2CCOC2=O)C1` (stereo not drawn), in that order: -11% and 1.66.
For `CO[C@@H](CNS(C)(=O)=O)c1ccsc1`, in that order: -12% and 1.51.
For `C=CCN(CC=C)C(=O)c1c(COc2ccc(C)cc2)n(CCN2CCOCC2)c(C)cc1=O`, in that order: -5% and 0.92.
For `N#Cc1nc(NC(=O)[C@@H]2Cc3ccccc3O2)[nH]c1C#N`, the “% Inhibition” value is 8% and the Z score is reported as -1.11.
The matching figures for `CCc1nc(N)nc(N2CCC3(CC[C@H](CNC(C)=O)O3)CC2)c1C`: -8% and 0.85.
The matching figures for `Cc1n[nH]c(C(F)(F)F)c1-c1cccc(C(=O)N[C@H]2CC[C@H](O)CC2)c1`: -7% and 0.87.
For `CCn1ccnc1[C@@H]1CCCCN1C(=O)Cc1ccc(C#N)cc1`, in that order: 11% and -1.22.
As to `COCCCNC(=O)Cc1cccn1-c1ccc(C)cc1`, the “% Inhibition” value was -6% and the Z score worked out at 0.78.
For `CCc1noc(CC)c1CC(=O)N1CCC[C@@H]1c1csc(C)n1`, in that order: -8% and 0.72.
`COCCN1CCC[C@H](NC(=O)c2cccnc2)C1`: the “% Inhibition” value is recorded as 0% and the Z score is -0.01.
For `CCCc1cc(C(=O)N(Cc2cccnc2)Cc2ccc3c(c2)OCO3)no1`, in that order: -7% and 1.25.
The matching figures for `CC(C)c1nnsc1C(=O)N[C@@H]1[C@@H]2CCO[C@@H]2[C@H]1N1CCCC1`: -9% and 1.45.
For `CC(C)CC(=O)[C@H]1CCCN(C(=O)c2coc(CN3CCN(c4ncccn4)CC3)n2)C1`, in that order: -5% and 0.85.
On to `NC(=O)CN1CCC=C(CCNS(=O)(=O)c2ccccc2)C1`, for which the “% Inhibition” value is recorded as -6% and the Z score was 1.05.
The matching figures for `CN(Cc1cc(C2CC2)on1)C(=O)CCc1ccc(F)c(F)c1`: -11% and 1.22.
For `Cc1ccc(F)c(N)c1Br`, in that order: 3% and -0.22.
For `CO[C@@H](CNC(=O)N1CCNC1=O)c1ccsc1`, in that order: -13% and 2.01.
On to `C[C@H](NCCCc1cnn(C)c1)c1cc(Cl)c(N)c(Cl)c1`, for which the “% Inhibition” value is given as -3% and the Z score is given as 0.28.
`COc1ccccc1/C=C/CN1CCC[C@H](CCC(=O)N2CCCC2)C1`: the “% Inhibition” value was -5% and the Z score stood at 0.97.
The matching figures for `COc1ccc(-c2ccnc3nc(C4CCCCC4)nn23)c(F)c1`: -17% and 2.38.
The matching figures for `Fc1ccc(CN2CCn3nc(CNc4ncccn4)cc3C2)c(F)c1F`: 2% and -0.3.
Regarding `CN(C)S(=O)(=O)c1ccc(-c2nnc(NC(=O)[C@@H]3COc4ccccc4O3)o2)cc1`, the “% Inhibition” value is on record as -15% and the Z score is 1.88.
For `CCOc1ccccc1C(=O)N1C[C@@H]2C[C@H](N(C)C)CN2C(=O)[C@@H]1C`, the “% Inhibition” value is given as -3% and the Z score is reported as 0.45.
`CC(=O)Oc1c(C)cc(CN[C@@H](C)c2nnn[nH]2)cc1C`: the “% Inhibition” value is -14% and the Z score was 1.97.
For `Cc1cc(C)c2c(n1)nn1c(-n3nc(C)cc3C)cc(C)nc21`, in that order: -12% and 1.88.
With `CCOc1cc2c(cc1-c1nccn1Cc1csc(N)n1)CCC2`, the “% Inhibition” value is on record as 11% and the Z score is on record as -2.08.
The matching figures for `Cc1occ(C(F)(F)F)c1C(=O)N[C@H](c1ncccn1)C1CC1`: -9% and 1.38.
For `O=S(=O)(c1cccc(C(F)(F)F)c1)n1cc(-c2cnn(S(=O)(=O)c3cccc(C(F)(F)F)c3)c2)cn1`, in that order: -4% and 0.59.
The matching figures for `CC(C)(C)c1ccc(-c2cc3[nH]c(Cc4ccccc4)cc(=O)n3n2)cc1`: 4% and -0.56.
Consider `c1ccc(-c2ccc(CNc3cc([C@H]4CCCNC4)ncn3)s2)nc1`, for which the “% Inhibition” value is -2% and the Z score is 0.32.
For `Cc1c(F)cccc1NC(=O)Nc1cccc(-c2nnc3n2CCCC3)c1`, in that order: -30% and 2.8.
For `Cc1cccc(Cl)c1S(=O)(=O)N1C[C@@H]2CC[C@H]1CN(C)C2`, the “% Inhibition” value was -9% and the Z score was determined as 0.99.
For `CCCN(CCC)CCNS(=O)(=O)c1cc(-c2cc(C)no2)ccc1C`, in that order: -5% and 0.59.
The matching figures for `Cc1cc(-c2nc([C@H]3CCOC3)no2)c2c(C)nn(C)c2n1`: -11% and 1.67.

A word on the % Inhibition: it is the relative decrease from the control value, in per cent.

The values above are taken from ChEMBL document CHEMBL4888484, “Replenishing the malaria drug discovery pipeline: Screening and hit evaluation of the MMV Hit Generation Library 1 (HGL1) against asexual blood stage Plasmodium falciparum ,using a nano luciferase reporter read-out” (2022).
